Data from PubChem BioAssay (NCATS).
Values joined by “and” are separate entries in the source; they are usually repeats but may differ in a detail not shown here. Equal values may be shown once. The inconclusive results got no clear call from the source; some entries with a clear call stand among them for comparison. Where the call is inconclusive, the potency comes from a doubtful curve fit. Active and inactive are the calls of the source. The call rests on the fitted dose curve; in most records, active means well fitted curve in the direction sought with a large enough effect; inconclusive means small, poorly fitted or top-dose-only effect, or another doubt; inactive means no such curve, though single readings can be large; an effect the other way counts as inactive or inconclusive.

Columns and labels:
[1] = qHTS Assay for Identifying Gametocytocidal Compounds (AID 743244); settings: P. falciparum 3D7 stage III-V gametocytes, alamarBlue, 72 h; max response: stronger effect = lower value
Outline: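 P. falciparum 3D7 stage III–V gametocytes (20,000 cells/well) were exposed to compounds for 72 h at 37 °C, 5% CO2. AlamarBlue was then added for 24 h; decreased resorufin fluorescence (Ex 525/Em 598 nm) indicated loss of viability.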

[2] = qHTS assay to identify small molecule inhibitors of chordoma cells - UCH-1 (AID 1259355); further: nearly all actives have a fitted effect of over 55% in size; on potency: series mostly up to about 46 µM
Outline: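 A 48hr growth-inhibition format: each drug tested at 15 concentrations together with added auranofin, camptothecin, doxorubicin, rubitecan and topotecan, with cell viability quantified as CellTiter-Glo luminescence.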

[3] = qHTS assay to identify small molecule inhibitors of chordoma cells - UCH-2 (AID 1259356)
[4] = P-glycoprotein substrates identified in KB-8-5-11 adenocarcinoma cell line, qHTS therapeutic library screen (AID 1346987); further: nearly all actives have a fitted effect of over 65% in size
Outline: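 Luminescence from CellTiter-Glo, read 5 min after addition, quantified survival of KB-8-5-11 (P-gp-overexpressing) cells exposed to compounds for 72 h. AC50 was derived from concentration-response curves.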
Potency means the concentration at half of the fitted maximal effect; tags describe the fitted curve by direction and shape.

SMILES	Potency [1]	Potency [2]	Potency [3]	Potency [4]
O=C(OC[C@H]1O[C@@H](OC(=O)c2cc(O)c(O)c(OC(=O)c3cc(O)c(O)c(O)c3)c2)[C@H](OC(=O)c2cc(O)c(O)c(OC(=O)c3cc(O)c(O)c(O)c3)c2)[C@@H](OC(=O)c2cc(O)c(O)c(OC(=O)c3cc(O)c(O)c(O)c3)c2)[C@@H]1OC(=O)c1cc(O)c(O)c(OC(=O)c2cc(O)c(O)c(O)c2)c1)c1cc(O)c(O)c(OC(=O)c2cc(O)c(O)c(O)c2)c1	inconclusive: 35.5 µM [inhibitor, single point]	active: 15.8 µM	active: 16.4 µM	active: 23.1 µM
C=C1C(=O)O[C@H]2[C@H]1CC/C(C)=C\CC[C@@]1(C)O[C@@H]21	–	inconclusive: 28.2 µM [cytotoxic, partial curve, poor fit]	inconclusive: 29.1 µM [cytotoxic, single point]	inconclusive: 16.4 µM [inhibitor, single point]
C#C[C@]1(O)CC[C@H]2[C@@H]3CCC4=C/C(=N/O)CC[C@@H]4[C@H]3CC[C@@]21CC	–	inactive	inconclusive: 36.6 µM [rising, partial curve, poor fit]	active: 5.8 µM and inconclusive: 16.4 µM [inhibitor, single point]
CC(=O)Oc1ccc(C2(c3ccc(OC(C)=O)cc3)C(=O)Nc3ccccc32)cc1	–	active: 3.55 µM and active: 3.98 µM	inconclusive: 1.3 µM [cytotoxic, full curve] and inconclusive: 1.83 µM [cytotoxic, full curve, poor fit]	inactive
